{"source": "patent US6384083B1", "about": "“USE OF ADAMANTANE AMINES OR STRUCTURALLY SIMILAR COMPOUNDS FOR COMBATING BORNA DISEASE VIRUS AND FOR THE PREVENTION AND TREATMENT OF AFFECTIVE DISEASES AND OTHER DISORDERS ASSOCIATED WITH BDV INFECTIONS IN HUMANS AND ANIMALS” (priority 1996, dated 2002)", "test_system": "BDV-Hu-H1", "assay": "Inhibition of BDV replication in human oligodendroglia (OL) cells", "conditions": "1.2 μg/mL", "note": "Where a name gives a salt, the structure may show the parent alone."}
{"smiles": "NC12CC3CC(CC(C3)C1)C2", "note": "[amantadine sulfate]", "values": [{"measurement": "time until virus titer is reduced to a level at which BDV can no longer be detected", "value": 2, "unit": "days"}]}
